Data from PubChem BioAssay AID686970 (National Center for Advancing Translational Sciences (NCATS), 2013).
Screen size: about 360,000 compounds; about 6,000 (1.7%) were called active. Inconclusive results, whose numbers are uncertain, are shown with a selection of clear calls. The call rests on the fitted dose curve; in most records, active means well fitted cell-killing curve with a large enough effect; inconclusive means small, poorly fitted or top-dose-only effect, or effect the other way; inactive means flat fitted curve, though single readings scatter. No potency is given beside an inconclusive call; the fits are too rough.

experiment: qHTS for induction of synthetic lethality in tumor cells producing 2HG: qHTS for the HT-1080-NT fibrosarcoma cell line; details: HT-1080-NT fibrosarcoma viability, CellTiter-Glo ATP luminescence, 48 h; activity, negative = less viability: at 46.1 µM (top of the series) unless noted;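 further: NT is the 2HG producing partner of a matched IDH1 knockdown line; nearly all actives have a fitted effect of over 55% in size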;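 on activity, negative = less viability: 0% = DMSO-treated cells and -100% = media-only wells without cells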
How it was run: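 Viability of the 2HG-overproducing fibrosarcoma line after 48 hours of compound exposure at 37 degrees C was determined by luminescence with CellTiter-Glo, and concentration-effect curves were then fitted and categorized.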
Potency means the concentration at half of the fitted maximal effect; tags describe the fitted curve by direction and shape.

Question: With `COc1ccc(-c2ccc(CN3C(CC(C)C)C(=O)N(Cc4cn(CC5CCCCC5)nn4)CCS3(=O)=O)cc2)cn1` (stereo unspecified) as the molecule, how does the Potency read?
Answer: inconclusive [cytotoxic, single point]

Question: With `CSc1nc(N(C)NC(=O)c2cccc(C)c2)c2ccccc2n1` as the molecule, how does the Potency read?
Answer: active: 0.13 µM

Question: Which “activity, negative = less viability” value does the source give for `O=C(O)/C=C/C(=O)c1ccc2c(c1)NC(=O)CO2` here?
Answer: inactive: 0.288%

Question: For `COc1ccc(Cl)cc1NC(=O)c1cccc([N+](=O)[O-])c1O`, which Potency is on record?
Answer: inconclusive [cytotoxic, single point]

Question: With `c1ccc(-c2nnc3ccc(N4CCCC4)nn23)cc1` as the molecule, how does the “activity, negative = less viability” value read?
Answer: inactive: 16.4%

Question: With `CCOC(=O)c1cc2c(ccn2C)n1CC(=O)N(C)C` as the molecule, how does the “activity, negative = less viability” value read?
Answer: inactive: 20%

Question: For `COc1ccc2[nH]c3c(c2c1)CCN1C(=O)C(CC(=O)NCCC2=CCCCC2)C[C@H](C(=O)N2CCCCC2)[C@@]31C` (stereo partly specified), which “activity, negative = less viability” value is on record?
Answer: inactive: 2.28%

Question: With `O=C1Nc2ccccc2C1=Nc1ccc(Br)cc1` as the molecule, how does the Potency read?
Answer: inconclusive [cytotoxic, partial curve]

Question: With `CC1=Nc2cc(C(=O)NCC3CCCO3)ccc2Sc2ccc(Br)cc21` (stereo unspecified) as the molecule, how does the Potency read?
Answer: active: 10.3 µM

Question: With `COc1ccc(CCN2CCC(Nc3nc4ccccc4n3Cc3ccc(F)cc3)CC2)cc1` as the molecule, how does the Potency read?
Answer: active: 14.6 µM

Question: With `CN(C)C(=O)c1ccc(NC(=O)c2cccc(S(=O)(=O)N3CCCCCC3)c2)cc1` as the molecule, how does the “activity, negative = less viability” value read?
Answer: inactive: -1.5%

Question: With `CC(=O)Nc1cc(OC(C)=O)c2nonc2c1OC(C)=O` as the molecule, how does the Potency read?
Answer: active: 6.31 µM

Question: Which “activity, negative = less viability” value does the source give for `CCOC(=O)[C@]12CCCC=C1N(CCc1ccc(OC)c(OC)c1)C(=O)[C@H](CC(=O)N1CCN(C(=O)C3CC3)CC1)C2` here?
Answer: inactive: 8.51%

Question: Which Potency does the source give for `O=C(CCC(=O)N1CCOc2ccc(Cl)cc21)NCCCN1CCN(c2ccccc2F)CC1` here?
Answer: inconclusive [cytotoxic, single point]

Question: For `CCOC(=O)C(C)Oc1cccc2c(=O)n(CC(=O)NCc3ccccc3)ccc12` (stereo unspecified), which Potency is on record?
Answer: active: 0.517 µM

Question: With `C[C@@]12C(=O)OC(=O)[C@]1(C)C1CCC2O1` as the molecule, how does the Potency read?
Answer: active: 1.46 µM

Question: With `Cc1ccc2c(c1)CCCN2C(=O)CCc1nc2ccccc2c(=O)[nH]1` as the molecule, how does the Potency read?
Answer: active: 8.2 µM

Question: For `C=CCn1c(=S)[nH]c2cc(C(=O)NCCc3ccc(S(N)(=O)=O)cc3)ccc2c1=O`, which activity, negative = less viability is on record?
Answer: inconclusive: 0.756%

Question: Which Potency does the source give for `Cc1nc([N+](=O)[O-])c(Br)n1CC(=O)c1ccc2ccccc2c1` here?
Answer: active: 16.4 µM

Question: For `CC(C)(C)NC(=O)C(CCc1ccccc1)n1c(=O)c(-c2cc3ccccc3[nH]2)nc2ccccc21` (stereo unspecified), which Potency is on record?
Answer: inconclusive [cytotoxic, single point]

Question: Which Potency does the source give for `Cc1c(-c2ccc(F)cc2)nc(N)c(C#N)c1-c1ccco1` here?
Answer: inconclusive [cytotoxic, single point]

Question: With `CCC(=O)N1CCC1(C)C(=O)Nc1cc(-c2ccccc2)nn1C` (stereo unspecified) as the molecule, how does the Potency read?
Answer: inconclusive [rising, partial curve]

Question: Which Potency does the source give for `O=C1C=C(Nc2ccccc2O)c2ccccc2C1=O` here?
Answer: inconclusive [cytotoxic, single point]

Question: For `COC(=O)Nc1nc2c(C)cccc2s1`, which Potency is on record?
Answer: inconclusive [cytotoxic, partial curve, poor fit]

Question: For `COc1cc(CNc2ccc3[nH]c(=O)[nH]c3c2)ccc1OCc1ccccc1Cl`, which Potency is on record?
Answer: inconclusive [cytotoxic, single point]

Question: For `COc1ccc(CCNc2cc(C)nc3c(-c4ccc(Cl)cc4)cnn23)cc1OC`, which Potency is on record?
Answer: inconclusive [cytotoxic, partial curve]

Question: For `Clc1ccc2c(NCCNC3CCCCC3)ccnc2c1`, which Potency is on record?
Answer: active: 14.6 µM

Question: For `CCc1cc2c(COC(=O)c3cccc(NS(C)(=O)=O)c3)cc(=O)oc2cc1O`, which Potency is on record?
Answer: inconclusive [cytotoxic, partial curve]

Question: For `Cc1cccc(-c2nc3c(c(SCC(=O)N4CCOCC4)n2)Cc2c(CO)cnc(C)c2O3)c1`, which Potency is on record?
Answer: inconclusive [cytotoxic, single point]

Question: With `COc1ccc(C(CC(=O)N2CCOCC2)c2c(OC)cc(OC)c3c(-c4ccccc4)cc(=O)oc23)cc1` (stereo unspecified) as the molecule, how does the “activity, negative = less viability” value read?
Answer: inactive: 2.12%

Question: Which “activity, negative = less viability” value does the source give for `COc1ccc(C(=O)OCC(=O)NC2CC2)cc1S(=O)(=O)Nc1ccc(C)cc1` here?
Answer: inactive: 4.14%

Question: With `Cc1noc(C)c1COc1cccc(C(=O)OC(C)C(=O)Nc2ccc3c(c2)OCO3)c1` (stereo unspecified) as the molecule, how does the Potency read?
Answer: active: 10 µM

Question: With `CC(=O)Nc1ccc(NC(=O)c2ccc(NS(=O)(=O)c3cc(C(C)(C)C)cc(C)c3C)cc2)cc1` as the molecule, how does the Potency read?
Answer: inconclusive [cytotoxic, partial curve]

Question: With `Cc1ccc2nc(-c3ccc(O)cc3)oc2c1` as the molecule, how does the Potency read?
Answer: inconclusive [cytotoxic, single point]

Question: Which Potency does the source give for `Oc1ccc(CNc2ccc(F)cc2)c2cccnc12` here?
Answer: active: 18.4 µM

Question: With `O=C(N/N=C\c1ccc(Cl)cc1Cl)c1sccc1-n1cccc1` as the molecule, how does the Potency read?
Answer: inconclusive [cytotoxic, single point]

Question: With `COC(=O)c1cc(=O)nc(NN=C2c3ccccc3-c3ccccc32)s1` as the molecule, how does the Potency read?
Answer: inconclusive [cytotoxic, partial curve]

Question: With `CCN(CC(=O)Nc1cc(Cl)ccc1-n1cncn1)Cc1nc2ccccc2c(=O)[nH]1` as the molecule, how does the “activity, negative = less viability” value read?
Answer: inactive: -10.3%

Question: Which Potency does the source give for `CC1=C(C(=O)OC(C)C)C(c2cccs2)C(C(=O)OC(C)C)=C(C)N1` here?
Answer: inconclusive [cytotoxic, single point]

Question: With `O=C(c1cc([N+](=O)[O-])ccc1N1CCCCC1)N1CCc2ccccc21` as the molecule, how does the Potency read?
Answer: inconclusive [cytotoxic, full curve]

Question: With `COc1ccc(C2CC3(CC(C)(C)NC(=S)N3)Oc3cc(O)cc(C)c32)cc1OC` (stereo unspecified) as the molecule, how does the “activity, negative = less viability” value read?
Answer: inactive: 2.33%

Question: With `O=C(c1cccc(F)c1)N1CCCC(C(=O)N2CCCCCC2)C1` (stereo unspecified) as the molecule, how does the “activity, negative = less viability” value read?
Answer: inactive: -2.13%

Question: With `COc1ccc(-n2cc(CNCc3cnc4ccccn34)c(-c3cccc(F)c3)n2)cc1` as the molecule, how does the Potency read?
Answer: inconclusive [cytotoxic, single point]

Question: For `O=C(NC1CC1)c1cccc(Nc2ccc(-c3ccc4c(c3)OCCO4)nn2)c1`, which Potency is on record?
Answer: inconclusive [cytotoxic, single point]

Question: Which Potency does the source give for `O=[N+]([O-])c1cc(/C=N/NC(=S)Nc2ccccc2Cl)ccc1Cl` here?
Answer: inconclusive [cytotoxic, single point]

Question: Which Potency does the source give for `c1ccc(-c2csc3ncnc(NCCN4CCOCC4)c23)cc1` here?
Answer: inconclusive [cytotoxic, partial curve]

Question: With `COc1ccc(/C=N/NC(=O)c2cccc(C(F)(F)F)c2)cc1` as the molecule, how does the Potency read?
Answer: inconclusive [rising, partial curve]

Question: For `CC(=O)Nc1ccc(Oc2cnc3ccccc3n2)cc1`, which Potency is on record?
Answer: active: 2.31 µM

Question: For `CN1CCN(C2=Cc3ccccc3Sc3cc(F)ccc32)CC1`, which Potency is on record?
Answer: active: 15.8 µM

Question: For `CCOc1ccccc1CN1CCCC(C(=O)Nc2cccc(-n3cccn3)c2)C1` (stereo unspecified), which Potency is on record?
Answer: active: 23.1 µM

Question: With `COC(=O)CN1C(=S)N(c2ccc(Cl)cc2)C(=O)C1CC(=O)Nc1ccc(Cl)cc1` (stereo unspecified) as the molecule, how does the Potency read?
Answer: inconclusive [cytotoxic, single point]

Question: Which Potency does the source give for `OC(CN1CCN(c2ccccn2)CC1)Cn1c2ccc(Cl)cc2c2cc(Cl)ccc21` (stereo unspecified) here?
Answer: inconclusive [cytotoxic, single point]

Question: For `CCOc1cc(C(=O)Nc2cc(C(=O)OC)ccc2C)ccc1OCC(=O)N1CCOCC1`, which Potency is on record?
Answer: inconclusive [rising, single point]

Question: With `COc1cc(Cl)c(C)cc1NC(=O)CN1CCN(C(=O)C2CC2)CC1` as the molecule, how does the “activity, negative = less viability” value read?
Answer: inactive: -23.8%

Question: Which Potency does the source give for `C=CCc1cccc(C2Nc3ccccc3C(=O)N2O)c1O` (stereo unspecified) here?
Answer: inconclusive [cytotoxic, single point]

Question: Which Potency does the source give for `C/C(=N\NC(N)=S)c1cc(-c2ccccc2)c(-c2ccccc2)s1` here?
Answer: inconclusive [cytotoxic, single point]

Question: Which Potency does the source give for `O=C(Nc1ccc2oc(=O)ccc2c1)c1ccc(-c2cccc([N+](=O)[O-])c2)o1` here?
Answer: active: 10.3 µM

Question: Which Potency does the source give for `CCOC(=O)c1c(CSC(=N)N)n(-c2ccccc2)c2cc(Br)c(OC(C)=O)cc12` here?
Answer: inconclusive [cytotoxic, single point]

Question: Which Potency does the source give for `Cc1ccc(-c2c(C#N)c(N)n3c(nc4ccccc43)c2C#N)cc1` here?
Answer: inconclusive [cytotoxic, partial curve, poor fit]

Question: With `Clc1ccc(-c2nc3cnccn3c2Nc2ccc3c(c2)OCO3)cc1` as the molecule, how does the “activity, negative = less viability” value read?
Answer: inactive: -22%

Question: Which “activity, negative = less viability” value does the source give for `Cc1cccc(-c2nc(CS(=O)CC(=O)NCC3CCCO3)c(C)o2)c1` (stereo unspecified) here?
Answer: inactive: 2.94%

Question: For `Cc1ccc(-c2nnn(CC(=O)N(c3cccc(F)c3)C(C(=O)NC3CCCC3)c3ccco3)n2)o1` (stereo unspecified), which Potency is on record?
Answer: inconclusive [cytotoxic, full curve]

Question: Which Potency does the source give for `Cc1cc(C)c2nc(N(CCN(C)C)C(=O)c3ccc4ccccc4c3)sc2c1` here?
Answer: inconclusive [cytotoxic, single point]

Question: Which “activity, negative = less viability” value does the source give for `CCN(CC)S(=O)(=O)c1cccc(NC(=O)COC(=O)c2cncc(Br)c2)c1` here?
Answer: inactive: 4.06%

Question: For `CCNC(=O)C1(C)CCCN(Cc2cc3ccccc3o2)C1` (stereo unspecified), which Potency is on record?
Answer: inconclusive [rising, partial curve]

Question: For `Cc1ccc(-n2c(C3CC3c3ccc(Cl)cc3)n[nH]c2=S)cc1` (stereo unspecified), which Potency is on record?
Answer: inconclusive [cytotoxic, full curve, poor fit]

Question: With `COc1cccc(-c2cnc3c(NC=O)cc(-c4ccc(OC)cc4OC)cn23)c1` as the molecule, how does the Potency read?
Answer: inconclusive [cytotoxic, full curve]

Question: For `CC(c1ccccc1)N1CCn2c(nc3cc(NC(=O)NC4CCCCC4)ccc32)C1` (stereo unspecified), which Potency is on record?
Answer: active: 15.8 µM

Question: Which Potency does the source give for `FC(F)(F)c1ccc(NC(=S)NC2CCCCC2)cc1` here?
Answer: inconclusive [cytotoxic, single point]

Question: For `CC(C)NC(=O)c1ccc(NC(=O)CC2SC(N3CCCCC3)=NC2=O)cc1` (stereo unspecified), which activity, negative = less viability is on record?
Answer: inactive: -5.59% [at 9.24 µM]

Question: Which Potency does the source give for `C=CCn1c(SCC(=O)NC(=O)NCc2ccco2)nc2sc(C)c(C)c2c1=O` here?
Answer: inconclusive [cytotoxic, partial curve]
